# PubChem BioAssay (Tox21)
# Where “and” joins values, the source holds several entries; their conditions need not be identical. Equal entries are not always repeated. The inconclusive results got no clear call from the source; some entries with a clear call stand among them for comparison. For some of these results: Where the call is inconclusive, the potency comes from a doubtful curve fit. Calls of active or inactive are those of the source. Unless noted, the call rests on the fitted dose curve; in most records, active means well fitted curve in the direction sought with a large enough effect in the repeat runs; inconclusive means weak or mixed curves; inactive means no such curve, though single readings can be large; an effect the other way counts as inactive or inconclusive.
# How the values were obtained:
# [1] = qHTS assay to identify small molecule antagonists of the peroxisome proliferator-activated receptor delta (PPARd) signaling pathway - cell viability counter screen (AID 743213); settings: PPARd-bla HEK293H viability, CellTiter-Glo luminescence, 17 h; viability change, negative = cytotoxic: at 62 µM (top of the series) unless noted; further: nearly all actives have a fitted effect of over 50% in size; further: potency means the concentration at half of the fitted maximal effect
# Method in brief: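 Viability counter-screen, qHTS format: PPARd-bla HEK293H, L165041 300 nM final, 17 h compound exposure at 37 C, CellTiter-Glo luminescence after 30 min RT.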
# [2] = target: Bile acid receptor (Homo sapiens) (UniProt Q96RI1); assay: qHTS assay to identify small molecule antagonists of the farnesoid-X-receptor (FXR) signaling pathway (AID 743217; active means well fitted inhibition curve with a large enough effect in the signal ratio in the repeat runs, not every such curve was filed as active; inconclusive means weak or mixed curves, or effect the other way; inactive means no such curve, though single readings can be large or run the other way; the % refers to the signal ratio; further: potency means the concentration at half of the fitted maximal effect; on activity change, negative = inhibition: on the % scale 0 is the no-effect control and ±100 the full control effect); settings: HEK293T FXR-UAS-bla, beta-lactamase ratio, CDCA-stimulated, 16 h; activity change, negative = inhibition: at 62.6 µM (top of the series) unless noted
# Sequence of UniProt Q96RI1 (Q96RI1 whole entry, looked up): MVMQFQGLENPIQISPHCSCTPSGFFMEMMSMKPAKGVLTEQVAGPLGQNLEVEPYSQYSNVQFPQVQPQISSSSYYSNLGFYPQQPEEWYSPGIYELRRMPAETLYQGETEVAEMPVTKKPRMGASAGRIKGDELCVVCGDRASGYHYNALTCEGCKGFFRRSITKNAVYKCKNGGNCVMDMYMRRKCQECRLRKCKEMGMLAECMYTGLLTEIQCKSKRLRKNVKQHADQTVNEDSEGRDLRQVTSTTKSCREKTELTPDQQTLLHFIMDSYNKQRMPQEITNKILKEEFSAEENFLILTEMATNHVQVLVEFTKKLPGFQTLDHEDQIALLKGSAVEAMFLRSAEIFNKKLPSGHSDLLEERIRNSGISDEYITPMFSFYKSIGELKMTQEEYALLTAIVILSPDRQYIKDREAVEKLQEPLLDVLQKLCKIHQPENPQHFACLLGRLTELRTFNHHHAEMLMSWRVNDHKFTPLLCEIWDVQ
# Method in brief: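 Test compounds are pin-transferred onto FXR-bla HEK 293T cells, then chenodeoxycholic acid is added at 50 uM final. After 16 h at 37 °C, LiveBLAzer B/G substrate is applied for 2 h at room temperature and fluorescence read.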
# [3] = qHTS assay to identify small molecule agonists of the farnesoid-X-receptor (FXR) signaling pathway - cell viability counter screen (AID 743218); settings: FXR-bla HEK293T viability, CellTiter-Glo luminescence, 16 h; viability change, negative = cytotoxic: at 62.6 µM (top of the series) unless noted; further: nearly all actives have a fitted effect of over 45% in size; further: potency means the concentration at half of the fitted maximal effect
# Method in brief: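 Quantitative HTS counter screen measuring ATP-based viability via CellTiter-Glo luminescence in HEK 293T cells carrying a UAS-driven beta-lactamase reporter, after 16 h compound exposure at 37 C.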
# [4] = target: Vitamin D3 receptor (Homo sapiens) (UniProt P11473); assay: qHTS assay to identify small molecule antagonists of the vitamin D receptor (VDR) signaling pathway (AID 743223; active means well fitted inhibition curve with a large enough effect in the signal ratio in the repeat runs, not every such curve was filed as active; inconclusive means weak or mixed curves, or effect the other way; inactive means no such curve, though single readings can be large or run the other way; the % refers to the signal ratio; further: on the % scale 0 is the no-effect control and ±100 the full control effect); settings: VDR-UAS-bla HEK293T, beta-lactamase FRET ratio, 16 h
# Sequence of UniProt P11473 (P11473 whole entry, looked up): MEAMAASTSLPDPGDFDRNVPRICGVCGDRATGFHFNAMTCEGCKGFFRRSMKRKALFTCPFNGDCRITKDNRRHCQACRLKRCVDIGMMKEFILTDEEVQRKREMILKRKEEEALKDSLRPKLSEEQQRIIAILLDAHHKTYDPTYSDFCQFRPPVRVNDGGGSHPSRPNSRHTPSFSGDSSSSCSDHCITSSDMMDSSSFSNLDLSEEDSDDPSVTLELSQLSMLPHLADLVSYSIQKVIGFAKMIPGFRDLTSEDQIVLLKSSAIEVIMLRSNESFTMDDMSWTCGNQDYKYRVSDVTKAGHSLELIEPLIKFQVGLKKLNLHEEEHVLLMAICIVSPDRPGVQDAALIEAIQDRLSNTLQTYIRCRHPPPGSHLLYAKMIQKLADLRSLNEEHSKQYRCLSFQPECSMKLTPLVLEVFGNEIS
# Method in brief: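 Cells carrying a VDR-driven beta-lactamase reporter (VDR-bla) were co-treated with compound and 3 nM final 1alpha,25-dihydroxyvitamin D3 for 16 h at 37C; reporter activity was measured as FRET substrate fluorescence after 2 h at room temperature.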
# [5] = target: Nuclear receptor ROR-gamma (Homo sapiens) (UniProt P51449); assay: qHTS assay to identify small molecule antagonists of the retinoid-related orphan receptor gamma (ROR-gamma) signaling pathway (AID 1159521; further: nearly all actives have a fitted effect of over 50% in size; further: potency means the concentration at half of the fitted maximal effect)
# Method in brief: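 Cells were plated, rested 4 h at 37 C, exposed to compounds for 2 h, then given 1 uM final doxycycline hyclate to induce RORγ expression. After 16 h, ONE-Glo luminescence from the ROR response element reporter was measured.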
# [6] = target: Peroxisome proliferator-activated receptor delta (Homo sapiens) (UniProt Q03181); assay: qHTS assay to identify small molecule antagonists of the peroxisome proliferator-activated receptor delta (PPARd) signaling pathway (AID 743215; active means well fitted inhibition curve with a large enough effect in the signal ratio in the repeat runs, not every such curve was filed as active; inconclusive means weak or mixed curves, or effect the other way; inactive means no such curve, though single readings can be large or run the other way; the % refers to the signal ratio;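 further: cells stimulated with agonist L165041 at 300 nM final during compound exposure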; further: potency means the concentration at half of the fitted maximal effect); settings: HEK293H PPARd-UAS-bla, beta-lactamase FRET ratio, antagonist, 17 h; ratio activity, negative = inhibition: at 62 µM (top of the series) unless noted
# Sequence of UniProt Q03181 (Q03181 whole entry, looked up): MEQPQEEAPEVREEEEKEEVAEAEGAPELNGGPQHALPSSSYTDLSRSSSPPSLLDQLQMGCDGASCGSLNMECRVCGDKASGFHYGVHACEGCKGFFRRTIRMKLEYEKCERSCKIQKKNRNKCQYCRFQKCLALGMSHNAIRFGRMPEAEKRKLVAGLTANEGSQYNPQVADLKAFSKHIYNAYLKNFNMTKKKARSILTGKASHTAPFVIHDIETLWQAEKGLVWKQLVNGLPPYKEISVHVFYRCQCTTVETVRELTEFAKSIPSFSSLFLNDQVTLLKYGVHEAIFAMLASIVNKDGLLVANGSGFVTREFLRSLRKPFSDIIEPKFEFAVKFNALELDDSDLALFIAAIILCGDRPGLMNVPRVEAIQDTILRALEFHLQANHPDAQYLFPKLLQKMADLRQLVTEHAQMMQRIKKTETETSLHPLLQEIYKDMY
# Method in brief: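 Here, a reporter line (HEK293H, beta-lactamase under a UAS) measures PPARd signaling. Compounds are tested against agonist L165041 at 300 nM final concentration over 17 h at 37 C, with fluorescence read after substrate.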
# [7] = qHTS assay to identify small molecule antagonists of the vitamin D receptor (VDR) signaling pathway - cell viability counter screen (AID 743225); settings: VDR-bla HEK293T viability, CellTiter-Glo luminescence, 16 h; viability change, negative = cytotoxic: at 61 µM (top of the series) unless noted; further: potency means the concentration at half of the fitted maximal effect; nearly all actives have a fitted effect of over 50% in size
# Method in brief: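 HEK293T VDR-bla; cpd + 1a,25-(OH)2D3 3 nM final, 16 h 37C/5% CO2; B/G FRET substrate 2 h RT; then CellTiter-Glo 30 min RT, luminescence.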
# [8] = qHTS assay for small molecule agonists of the antioxidant response element (ARE) signaling pathway (AID 743202; active means well fitted activation curve with a large enough effect in the signal ratio in the repeat runs, not every such curve was filed as active; inconclusive means weak or mixed curves, or effect the other way; inactive means no such curve, though single readings can be large or run the other way; the % refers to the signal ratio; further: on the % scale 0 is the no-effect control and ±100 the full control effect); settings: HepG2 ARE-bla reporter, beta-lactamase FRET, 16 h
# Method in brief: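 HepG2 ARE-bla cells; 16 h treatment at 37 C; FRET-based beta-lactamase fluorescence read after 2 h substrate incubation at room temperature.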
# [9] = target: Bile acid receptor (Homo sapiens) (UniProt Q96RI1); assay: qHTS assay to identify small molecule agonists of the farnesoid-X-receptor (FXR) signaling pathway (AID 743220; active means well fitted activation curve with a large enough effect in the signal ratio in the repeat runs, not every such curve was filed as active; inconclusive means weak or mixed curves, or effect the other way; the % refers to the signal ratio; further: potency means the concentration at half of the fitted maximal effect); settings: HEK293T FXR-UAS-bla, beta-lactamase FRET ratio, 16 h; activation: at 62.6 µM (top of the series)
# Method in brief: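 FXR-UAS-bla HEK 293T cells carrying a UAS-driven beta-lactamase reporter were plated for 5 h at 37C/5% CO2, then exposed to DMSO-dissolved Tox21 10K compounds for 16 h at 37C. A LiveBLAzer B/G FRET substrate was loaded for 2 h at room temperature before fluorescence reading.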
# [10] = qHTS assay for small molecule activators of the heat shock response signaling pathway - cell viability counter screen (AID 743209); settings: HSE-bla HeLa viability, CellTiter-Glo luminescence, 5 h; activity change, negative = cytotoxicity: at 62.6 µM (top of the series); further: potency means the concentration at half of the fitted maximal effect; nearly all actives have a fitted effect of over 50% in size
# Method in brief: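 Compounds dissolved in DMSO were added to overnight-plated HSE-bla HeLa cells and left 5 h at 37 C. Cell viability was quantified by luminescence using CellTiter-Glo.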
# [11] = target: Peroxisome proliferator-activated receptor delta (Homo sapiens) (UniProt Q03181); assay: qHTS assay to identify small molecule agonists of the peroxisome proliferator-activated receptor delta (PPARd) signaling pathway (AID 743212; calls by dose curve; further: potency means the concentration at half of the fitted maximal effect); settings: HEK293H PPARd-UAS-bla, beta-lactamase FRET ratio, 17 h; activation: at 62.6 µM (top of the series) unless noted
# Method in brief: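 Tox21 library screened in GeneBLAzer PPARd UAS-bla HEK293H cells. After compound treatment at 37 C, a FRET-based beta-lactamase substrate was applied for 2 h and fluorescence recorded.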
# [12] = qHTS assay to identify small molecule antagonists of the farnesoid-X-receptor (FXR) signaling pathway - cell viability counter screen (AID 743221; active means well fitted cell-killing curve with a large enough effect in the repeat runs, not every such curve was filed as active; inconclusive means weak or mixed curves, or effect the other way; inactive means no such curve, though single readings can be large or run the other way); settings: FXR-bla HEK293T viability, CellTiter-Glo luminescence, 16 h; activity change, negative = cytotoxicity: at 62.6 µM (top of the series) unless noted
# Method in brief: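 Multiplexed counter screen: viability of FXR-bla HEK 293T cells under agonist stimulation by chenodeoxycholic acid (50 uM, final) and test compound for 16 h at 37 C, measured by CellTiter-Glo luminescence in the reporter wells.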
# [13] = qHTS assay to identify small molecule agonists of the vitamin D receptor (VDR) signaling pathway - cell viability counter screen (AID 743224); settings: VDR-bla HEK293T viability, CellTiter-Glo luminescence, 16 h; activity change, negative = cytotoxicity: at 62.6 µM (top of the series); further: nearly all actives have a fitted effect of over 50% in size; further: potency means the concentration at half of the fitted maximal effect
# Method in brief: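 CellTiter-Glo viability readout on VDR-bla cells, measured after 16 h of compound treatment at 37C in the same wells.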
# [14] = target: Vitamin D3 receptor (Homo sapiens) (UniProt P11473); assay: qHTS assay to identify small molecule agonists of the vitamin D receptor (VDR) signaling pathway (AID 743222; calls by dose curve; further: potency means the concentration at half of the fitted maximal effect); settings: HEK293T VDR-UAS-bla, beta-lactamase FRET ratio, 16 h; activation: at 63.5 µM (top of the series) unless noted
# Method in brief: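 Tox21 cell reporter format: VDR-bla line, 16 h compound exposure in 5% CO2 at 37C, then fluorescence intensity after 2 h with LiveBLAzer B/G FRET substrate.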
# [15] = qHTS assay for small molecule agonists of the antioxidant response element (ARE) signaling pathway - cell viability counter screen (AID 743203; calls by dose curve; further: nearly all actives have a fitted effect of over 55% in size; further: potency means the concentration at half of the fitted maximal effect); settings: ARE-bla HepG2 viability, CellTiter-Glo luminescence, 16 h; viability change, negative = cytotoxic: at 73.3 µM (top of the series)
# Method in brief: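 ATP content via CellTiter-Glo luminescence served as the viability measure. Cells: ARE-bla HepG2, 2,000 per well. Exposure: 16 hrs, 37C/5% CO2.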
# [16] = qHTS assay to identify small molecule agonists of the AP-1 signaling pathway - cell viability counter screen (AID 1159525; calls by dose curve; further: nearly all actives have a fitted effect of over 55% in size; further: potency means the concentration at half of the fitted maximal effect)
# Method in brief: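 Same-well cytotoxicity counter screen of the Tox21 10K library in ME-180 cells. The readout is ATP-dependent luminescence after 5 h compound treatment. Data are normalised to DMSO and tetra n-octyl ammonium bromide controls.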
# [17] = qHTS assay for small molecule activators of the heat shock response signaling pathway (AID 743210; active means well fitted activation curve with a large enough effect in the signal ratio in the repeat runs, with a control signal flat, not every such curve was filed as active; inconclusive means weak or mixed curves; the % refers to the signal ratio;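 further: HeLa cells with beta-lactamase reporter driven by heat shock elements; on the % scale 0 is the no-effect control and ±100 the full control effect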); settings: HeLa HSE-bla reporter, beta-lactamase ratio, 5 h; activation: at 62.6 µM (top of the series) unless noted
# Method in brief: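 Following overnight attachment, HSE-bla HeLa cells received test compounds for 5 h at 37 C; beta-lactamase activity was then detected via FRET substrate fluorescence.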
# [18] = activity change, negative = inhibition: at 61 µM (top of the series) unless noted
# Tags describe the fitted curve by direction and shape or compound fluorescence and quenching.
smiles,measurement,setting,value
O=C1CCC(=O)O1,Potency,[1],"inconclusive: 0.156 µM [cytotoxic, full curve, poor fit]"
same,Potency,[2],inactive
same,Potency,[3],inactive
same,"activity change, negative = inhibition",[4]; [18],inconclusive: 27.4% [at 78.8 µM]
same,Potency,[5],"inconclusive: 0.0069 µM [inhibitor, full curve, poor fit]"
Nc1cnn([C@@H]2O[C@H](CO)[C@@H](O)[C@H]2O)c(=O)n1,Potency,[1],"inconclusive: 0.0692 µM [cytotoxic, full curve, poor fit]"
same,Potency,[2],"inconclusive: 61.7 µM [inhibitor, single point]"
same,Potency,[3],"inconclusive: 55 µM [cytotoxic, partial curve, poor fit]"
same,Potency,[5],active: 21.7 µM
Cc1c(N)cccc1[N+](=O)[O-],Potency,[1],inactive
same,Potency,[5],"inconclusive: 0.247 µM [inhibitor, single point]"
Clc1cc(Cl)c2c(c1)N=C1CCCCCN1C2,Potency,[1],"inconclusive: 23.9 µM [cytotoxic, partial curve, poor fit]"
same,Potency,[6],inactive
same,Potency,[2],inactive
same,Potency,[4]; [18],inactive
same,Potency,[5],inactive
OC(CCCN1CCCCC1)(c1ccccc1)c1ccccc1,Potency,[3],"inconclusive: 0.0133 µM [rising, full curve, poor fit]"
same,Potency,[5],"inconclusive: 29.8 µM [inhibitor, single point]"
CCCC(=O)Nc1ccc(O)c(C(C)=O)c1,Potency,[1],"inconclusive: 0.596 µM [cytotoxic, full curve, poor fit]"
same,"activity change, negative = inhibition",[4]; [18],inconclusive: -14.9%
same,Potency,[5],"inconclusive: 13.3 µM [inhibitor, single point]"
COS(C)(=O)=O,Potency,[1],"inconclusive: 2.27 µM [cytotoxic, single point]"
same,Potency,[6],inactive
same,Potency,[5],inactive
CCCCCC(N)=O,Potency,[1],inactive
same,Potency,[4]; [18],inactive
same,Potency,[5],"inconclusive: 59.6 µM [inhibitor, single point]"
CCCCC(CC)C(=O)OCCOCCOCCOCCOC(=O)C(CC)CCCC (stereo not given),Potency,[6],"inconclusive: 21.9 µM [rising, partial curve]"
same,Potency,[3],"inconclusive: 49 µM [rising, partial curve, poor fit]"
same,Potency,[7],"inconclusive: 21.9 µM [cytotoxic, full curve]"
same,Potency,[5],"inconclusive: 61.1 µM [inhibitor, single point]"
NC(N)=NS(=O)(=O)c1ccc(N)cc1,Potency,[2],inactive
same,Potency,[5],inactive
Cc1cccnc1,Potency,[1],"inconclusive: 9.93 µM [cytotoxic, single point]"
same,Potency,[5],"inconclusive: 5.45 µM [inhibitor, full curve, poor fit]"
C=C(C)C(=O)OCCOP(=O)(O)O,Potency,[3],inactive
same,"activity change, negative = inhibition",[4]; [18],inconclusive: 25.2% [at 78.8 µM]
same,Potency,[5],"inconclusive: 0.536 µM [inhibitor, single point]"
Cc1ncc([N+](=O)[O-])n1C,activation,[8]; at 73.3 µM (top of the series),inactive: -7.9% and inactive: -5.12%
same,"ratio activity, negative = inhibition",[6],inconclusive: -6.69%
same,Potency,[9],inactive
CCCCCCCCCCCCCCOS(=O)(=O)O,Potency,[10],inconclusive: 61.6 µM [cytotoxic]
same,Potency,[11],inconclusive: 61.6 µM
same,Potency,[12],"inconclusive: 61.6 µM [falling, single point]"
CC(C)c1ccccc1,Potency,[10],"inconclusive: 64 µM [cytotoxic, partial curve, poor fit]"
same,Potency,[13],"inconclusive: 57 µM [cytotoxic, single point]"
CCCCc1ccc2nc(NC(=O)OC)[nH]c2c1,Potency,[11],"inconclusive: 0.944 µM [rising, full curve, poor fit]"
same,Potency,[6],"inconclusive: 4.22 µM [rising, partial curve, poor fit]"
OCc1ccc(Cl)cc1Cl,Potency,[9],"inconclusive: 3.35 µM [falling, single point]"
same,activation,[9],inconclusive: -1.58%
OC[C@H]1O[C@H](O[C@]2(CCl)O[C@H](CCl)[C@@H](O)[C@@H]2O)[C@H](O)[C@@H](O)[C@H]1Cl,Potency,[14],"inconclusive: 0.0247 µM [rising, full curve, poor fit]"
OC[C@H]1O[C@@H](OCCc2ccc(O)cc2)[C@H](O)[C@@H](O)[C@@H]1O,Potency,[14],inactive
C=CCSSCCC,Potency,[13],inactive
CCCC(C)=O,activation,[8]; at 94.8 µM (top of the series),inactive: -2%
CCN(Cc1ccccc1)c1ccccc1,Potency,[15],inactive
CC(C)COC(=O)c1ccccc1,Potency,[15],"inconclusive: 54.5 µM [cytotoxic, partial curve, poor fit]"
Cc1c(N(C)CS(=O)(=O)O)c(=O)n(-c2ccccc2)n1C,"activity change, negative = inhibition",[4]; at 61 µM (top of the series),inactive: 7.78%
CC(COC(C)(C)C)OCCCO (stereo not given),Potency,[2],inactive
same,Potency,[16],inactive
COc1ccc2c(c1)c1c3n2CCN(C)C3=NCC1,"ratio activity, negative = inhibition",[6],inconclusive: 20.9%
same,Potency,[4]; [18],inactive
same,Potency,[16],inactive
CN1C(C)(C)CCCC1(C)C,Potency,[15],inactive
same,Potency,[1],inactive
same,Potency,[9],inactive
same,"activity change, negative = inhibition",[4]; [18],inconclusive: 7.01%
same,Potency,[16],inactive
CCOC(=O)C(O)c1ccccc1 (stereo not given),Potency,[8]; activation: at 73.3 µM (top of the series) unless noted,inactive
same,Potency,[3],inactive
same,activation,[14],inconclusive: 6.29%
same,Potency,[16],"inconclusive: 0.239 µM [cytotoxic, single point]"
Cc1cc(O)c(Cl)cc1C,Potency,[14],inactive
same,Potency,[16],inactive
Nc1c[n+](N2CCOCC2)no1,Potency,[17],inactive
same,Potency,[6],inactive
same,Potency,[16],inactive
CCOC(=O)CC(=O)c1ccccc1,Potency,[11],inactive
same,Potency,[16],inactive
CCCCC1C(=O)N(c2ccccc2)N(c2ccccc2)C1=O,Potency,[1],inactive
same,Potency,[7],"inconclusive: 0.601 µM [rising, full curve, poor fit]"
same,Potency,[16],inactive
C[C@]12CCC(=O)C=C1CC[C@H]1[C@@H]3CC[C@](O)(C(=O)CO)[C@@]3(C)C[C@H](O)[C@@]12F,Potency,[1],inactive
same,Potency,[2],inactive
same,Potency,[3],"inconclusive: 0.298 µM [rising, partial curve, poor fit]"
same,Potency,[16],inactive
